PubChem BioAssay AID493208 (National Center for Advancing Translational Sciences (NCATS), 2011)
The campaign covered roughly 44,000 compounds. About 340 (0.77%) were called active. Not shown: some 5% with an inconclusive outcome. Calls follow the shape of the dose curve; as a rule, active = well fitted inhibition curve with a large enough effect; inconclusive = small, poorly fitted or top-dose-only effect; inactive = flat fitted curve, though single readings scatter. Some of the results follow.

assay: Acumen qHTS Assay for Inhibitors of the mTORC1 Signaling Pathway in MEF (Tsc2-/-, p53-/-) Cells: Sytravon; settings: phospho-rpS6 immunofluorescence/PI, 24 h; series mostly up to 38.3 µM; activity change, negative = inhibition: at the top concentration;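 also: plate controls were DMSO for no effect and rapamycin for full effect; nearly all actives have a fitted effect of over 50% in size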
Procedure, shortened: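 Tsc2-/-, p53-/- mouse embryonic fibroblasts (empty-vector line) exposed to compound 24 hrs at 37 C, fixed, immunostained for phospho-rpS6 and counterstained with propidium iodide. Acumen laser scanning gives % positive cells from Alexa 488/PI ratio, thresholded using 7.5 nM rapamycin; PI count gives viability.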

Activity change, negative = inhibition, inactive:
COc1ccc(OC)c2sc(NC(=O)c3ccc(S(=O)(=O)N4CCCC4)cc3)nc12 0%, CC(NC(=O)c1ccc2c(c1)CCN2S(C)(=O)=O)c1ccccc1 (configuration not stated) -0.138%, Cc1c(Cl)cccc1NC(=O)c1cccc(NC(=O)N2CCSc3ncccc32)c1 -0.368%, Cc1ccc(CNC(=O)c2ccc3c(c2)nc(C)n3-c2cccc(F)c2)cc1 1.34%, CCOc1ccc(NC(=O)CSC2=Nc3ccccc3C3=NC(CCC(=O)NCc4ccccc4)C(=O)N23)cc1 (configuration not stated) 4.24%, Cc1cc(C(F)(F)F)n2nc(-c3ccc(Br)cc3)cc2n1 2.79%, CCCCOc1ccc(-c2nn(-c3ccccc3)cc2C2NC(=O)NC(C)=C2C(=O)OCC)cc1 (configuration not stated) -3.44%, COc1ccc(OCC(=O)NCc2ccc3c(c2)CCN3C(=O)c2ccccc2)cc1 -7.05%, COc1ccccc1N1CCN(c2ncnc3c2cnn3-c2cc(Cl)ccc2C)CC1 2.57%, CCc1ccc(C(=O)c2cn(CC(=O)Nc3cccc(OC)c3)c3ccc(OC)cc3c2=O)cc1 -0.195%, Cc1cc2oc(C(=O)Nc3ccc(S(N)(=O)=O)cc3)cc(=O)c2cc1C 5.18%, O=C(c1cc2ccccc2oc1=O)N1CCN(c2ccc(Cl)cc2)CC1 1.43%, O=C(NCCc1ccccc1)c1cnc2sc(N3CCCCCC3)nn2c1=O 0%, Cc1ccc(C(=O)N2c3ccc(C)cc3C(C)(c3ccccc3)CC2(C)C)cc1 (configuration not stated) 9.23%, CCc1cccc(NC(=O)CN2C(=O)COc3ccc(S(=O)(=O)Nc4ccccc4)cc32)c1 1.8%, CCOC(=O)c1ccc(N2C(=O)c3[nH]nc(-c4ccc(C)cc4)c3C2c2cccc(F)c2)cc1 (configuration not stated) -27.9%, Cc1ccc(CSc2nc3ccc(NC(=O)COc4ccccc4)cc3s2)cc1 0.7%, Cc1ccc(OCc2nc(-c3ccc(C(=O)N4CCN(c5ccccc5F)CC4)cc3)oc2C)cc1 -0.65%, COc1ccc(CNC(=O)Cn2c(SCC(=O)Nc3ccc(OC)cc3)nc3ccccc32)cc1 -2.12%, Cc1cccc(-n2ncc(C(=O)N3CCN(c4ccc(Cl)cc4)CC3)c2C2CCN(C(=O)OC(C)(C)C)CC2)c1 0.699%, O=C1OC(C(=O)Nc2cccc(Br)c2)Cc2ccccc21 (configuration not stated) -3.38%, CCc1ccc2nc(N(CCN(CC)CC)C(=O)c3ccco3)sc2c1 -10.4%, Cc1ccc(NC(=O)c2ccc(-c3cccc(Cl)c3C)o2)cc1 10.9%, COc1ccc(OC)c(CNC(=O)c2cc3c(-c4ccc(OC)c(OC)c4)nn(C)c3s2)c1 0.714%, CN(C)S(=O)(=O)N(CC(=O)NCCSCc1ccccc1)c1ccccc1 3.52%, CCCCCn1c(=O)[nH]c2cc(C(=O)Nc3cc(C)cc(C)c3)ccc2c1=O -13.5%, Cc1cccc(N2C(=O)N(CC(=O)C(C)(C)C)c3ccccc3S2(=O)=O)c1C -6.82%, Cc1ccc(C)c(NC(=O)CN2CCCN(Cc3cccc(Cl)c3)S2(=O)=O)c1 -4.62%, COc1ccc(Cl)cc1NC(=O)c1cc(S(=O)(=O)NC2CCCCCC2)ccc1F 0.481%, Cc1cccc(NC(=O)CSc2cn(CC(=O)N3CCCCCC3)c3ccccc23)c1 -8.55%, Cc1cc(OC(C)C(=O)Nc2c(C(=O)c3ccc(F)cc3)oc3ccccc23)ccc1Cl (configuration not stated) -1.42%, CCc1ccc(Sc2cc(C(=O)NCc3ccccc3OC)c3ccccc3n2)cc1 1.34%, COC(=O)c1ccc(OCC2c3cc(OC)c(OC)cc3CCN2C(=O)Cc2ccc(OC)cc2)cc1 (configuration not stated) -0.271%, CCc1ccc(Sc2cc(C(=O)NCc3cccc(OC)c3)c3ccccc3n2)cc1 9.1%, COc1ccc(C2NC(=O)N(C)C3=C2C(=O)N(c2cccc(Cl)c2)C3)cc1 (configuration not stated) -1.48%, CCOc1ccc(N2CC(NC(=O)C(=O)c3c[nH]c4ccccc34)CC2=O)cc1 (configuration not stated) -1.11%, CCn1c(=O)cc(SCC(=O)NCc2ccc(F)cc2Cl)c2ccccc21 -7.41%, COc1cccc(CNC(=O)c2c(C)nn(-c3cccc(C)c3)c2-n2cccc2)c1 -4.26%, O=C(NCCCc1ccccc1)c1nn(-c2ccccc2F)nc1CO 0.158%, O=C(NCCc1ccccc1)c1ccc(CSc2nc3cccnc3n2Cc2ccc(F)cc2)cc1 -2.66%, CC(=O)c1ccc(NC(=O)C2CCC(CNS(=O)(=O)c3ccc(Br)s3)CC2)cc1 (configuration not stated) 0.112%, O=C(NC(=O)c1cccc(F)c1)Nc1ccc(-c2cc(C(F)(F)F)nn2-c2ccccc2)cc1 -2.06%, Cc1nc(-c2ccc(C)c(N3CCN(C(=O)Nc4ccccc4C(F)(F)F)CC3)c2)no1 -1.13%, Cc1ccc(C(=O)Nc2nnc(S(=O)(=O)N3CCOCC3)s2)cc1 2.75%, COC(=O)c1ccc(NC(=O)C2(S(=O)(=O)c3ccc(C)cc3)CC2)cc1 -15.6%, COC(=O)c1sc(-c2ccccc2)cc1NC(=O)c1cccc(F)c1 0.128%, O=C(NCc1ccc(F)cc1)C1CCN(C(=O)c2ccc(-n3ccc4ccccc43)s2)CC1 -13.6%
